Results as given in the supplement of paper PMC12217912.
The list shows a part of the results. Sequences were assembled here from the parent chain. Inactive controls read about 0.05.

B1: TEV protease; numbered along this chain (parent)
chain: MGESLFKGPRDYNPISSSICHLTNESDGHTTSLYGIGFGPFIITNKHLFRRNNGTLVVQSLHGVFKVKDTTTLQQHLVDGRDMIIIRMPKDFPPFPQKLKFREPQREERICLVTTNFQTKSMSSMVSDTSCTFPSGDGIFWKHWIQTKDGQCGSPLVSTRDGFIVGIHSASNFTNTNNYFTSVPKNFMELLTNQEAQQWVSGWRLNADSVLWGGHKVFMVKPEEPFQPVKEATQL

Variants of: B1
Test: raw area under fraction-flipped curve 0-4 h after induction (AUC4h, not background-subtracted), DNA-recorder readout of cleavage of the substrate (dimensionless); higher = more cleavage of the substrate by the protease variant
Conditions: temperature: 34 °C; time window: 0-4 h after rhamnose induction
Procedure: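 In vivo DNA recorder in E. coli TOP10(DE3) ΔrhaA at 34 °C. Each TEVp single-site mutant (parent TEVp 0) is paired with a single-site variant of the 7-mer TEVs (canonical ENLYFQ|S). The substrate sits between flexible linkers in a Bxb1-sfGFP-TEVs-SsrA fusion, so cleavage stabilises Bxb1 and speeds flipping of a recombination array, read by NGS. The value is the raw area under the fraction-flipped curve over 0-4 h after rhamnose induction (AUC4h), with ≥20 reads per time point. It is not background-subtracted; inactive controls average about 0.047.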
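Further: Bxb1 expression induced with 0.2% (w/v) L-rhamnose at OD600 near 0.5, cultures sampled hourly, flipped fraction per protease–substrate barcode pair counted by paired-end Illumina sequencing.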

| Variant | area with substrate ANLYFQS | area with substrate HNLYFQS | area with substrate KNLYFQS | area with substrate LNLYFQS | area with substrate PNLYFQS | area with substrate SNLYFQS | area with substrate TNLYFQS | area with substrate VNLYFQS | area with substrate FNLYFQS | area with substrate INLYFQS |
| --- | --- | --- | --- | --- | --- | --- | --- | --- | --- | --- |
| MGESLFKGPRDYNPISSSICHLTNESDGHTTSLYGIGFGPFIITNKHLFRRNNGTLVVQSLHGVFKVKDTTTLQQHLVDGRDMIIIRMPKDFPPFPQKLKFREPQREERICLVTTNFQTKSMSSMVSDTSCTFPSGDGIFWKHWIQTKDGQCRSPLVSTRDGFIVGIHSASNFTNTNNYFTSVPKNFMELLTNQEAQQWVSGWRLNADSVLWGGHKVFMVKPEEPFQPVKEATQL [G153R] | 0.0273 |  |  |  |  |  |  |  |  |  |
| MGESLFKGPRDYNPISSSICHLTNESDGHTTSLYGIGFGPFIITNKHLFRRNNGTLVVQSLHGVFKVKDTTTLQQHLVDGRDMIIIRMPKDFPPFPQKLKFREPQREERICLVTTNFQTKSMSSMVSDTSCTFPSGDGIFWKHWIQTKDGQCGSPLVSTRDGFIVGIHSASNFTNTNNMFTSVPKNFMELLTNQEAQQWVSGWRLNADSVLWGGHKVFMVKPEEPFQPVKEATQL [Y179M] | 0.0559 | 0.0555 | 0.0646 | 0.0648 | 0.0376 | 0.0681 | 0.0546 | 0.0244 |  |  |
| MGESLFKGPRDYNPISSSICHLTNESDGHTTSLYGIGFGPFIITNKHLFRRNNGTLVVQSLHGVFKVKDTTTLQQHLVDGRDMIIIRMPKDFPPFPQKLKFREPQREERICLVTTNFQTKSMSSMVSDTSCTFPSGDGIFWKHWIQTKDGQCGSPLVSTRDGFIVCIHSASNFTNTNNYFTSVPKNFMELLTNQEAQQWVSGWRLNADSVLWGGHKVFMVKPEEPFQPVKEATQL [G166C] | 0.0537 | 0.045 | 0.0491 | 0.037 | 0.0534 |  | 0.0475 | 0.0512 | 0.0511 | 0.0619 |
| MGESLFKGPRDYNPISSSICHLTNESDGHTTSLYGIGFGPFIITNKHLFRRNNGTLVVQSLHGVFKVKDTTTLQQHLVDGRDMIIIRMPKDFPPFPQKLKFREPQREERICLVTTNFQTKSMSSMVSDTSCTFPSGDGIFWKHWIQTKDGQCGSPLVSTRDGFIVGIPSASNFTNTNNYFTSVPKNFMELLTNQEAQQWVSGWRLNADSVLWGGHKVFMVKPEEPFQPVKEATQL [H168P] | 0.042 | 0.046 | 0.0483 | 0.0589 | 0.0552 | 0.0483 |  | 0.0429 |  |  |
| MGESLFKGPRDYNPISSSICHLTNESDGHTTSLYGIGFGPFIITNKHLFRRNNGTLVVQSLHGVFKVKDTTTLQQHLVDGRDMIIIRMPKDFPPFPQKLKFREPQREERICLVTTNFQTKSMSSMVSDTSCTFPSGDGIFWKHWIQTKDGQCGSPLVSTRDGFICGIHSASNFTNTNNYFTSVPKNFMELLTNQEAQQWVSGWRLNADSVLWGGHKVFMVKPEEPFQPVKEATQL [V165C] | 0.0839 |  |  | 0.062 |  |  | 0.0636 |  | 0.0525 | 0.0592 |
| MGESLFKGPRDYNPISSSICHLTNESDGHTTSLYGIGFGPFIITNKHLFRRNNGTLVVQSLHGVFKVKDTTTLQQHLVDGRDMIIIRMPKDFPPFPQKLKFREPQREERICLVTTNFQTKSMSSMVSDTSCTFPSGDGIFWKHWIQTKDGQCGSPLVSTRDGFINGIHSASNFTNTNNYFTSVPKNFMELLTNQEAQQWVSGWRLNADSVLWGGHKVFMVKPEEPFQPVKEATQL [V165N] | 0.0491 | 0.0538 |  |  | 0.0482 |  | 0.031 |  | 0.0424 | 0.0488 |
| MGESLFKGPRDYNPISSSICHLTNESDGHTTSLYGIGFGPFIITNKHLFRRNNGTLVVQSLHGVFKVKDTTTLQQHLVDGRDMIIIRMPKDFPPFPQKLKFREPQREERICLVTTNFQTKSMSSMVSDTSCTFPSGDGIFWKHWIQTKDGQCGSPLVSTRDGFIVGEHSASNFTNTNNYFTSVPKNFMELLTNQEAQQWVSGWRLNADSVLWGGHKVFMVKPEEPFQPVKEATQL [I167E] | 0.0707 |  |  |  |  |  |  | 0.0664 |  | 0.0546 |
| MGESLFKGPRDYNPISSSICHLTNESDGHTTSLYGIGFGPFIITNKHLFRRNNGTLVVQSLHGVFKVKDTTTLQQHLVDGRDMIIIRMPKDFPPFPQKLKFREPQREERICLVTTNFQTKSMSSMVSDTSCTFPSGDGIFWKHWIQTKDGQCGSPLVSTRDGFIVGGHSASNFTNTNNYFTSVPKNFMELLTNQEAQQWVSGWRLNADSVLWGGHKVFMVKPEEPFQPVKEATQL [I167G] | 0.0402 |  |  |  | 0.0539 | 0.0475 |  |  |  |  |
| MGESLFKGPRDYNPISSSICHLTNESDGHTTSLYGIGFGPFIITNKHLFRRNNGTLVVQSLHGVFKVKDTTTLQQHLVDGRDMIIIRMPKDFPPFPQKLKFREPQREERICLVTTNFQTKSMSSMVSDTSCTFPSGDGIFWKHWIQTKDGQCGSPLVSTRDGFIVGIHSASNFYNTNNYFTSVPKNFMELLTNQEAQQWVSGWRLNADSVLWGGHKVFMVKPEEPFQPVKEATQL [T174Y] | 0.0412 | 0.0688 | 0.0683 |  | 0.0776 | 0.0538 | 0.066 |  |  |  |
| MGESLFKGPRDYNPISSSICHLTNESDGHTTSLYGIGFGPFIITNKHLFRRNNGTLVVQSLHGVFKVKDTTTLQQHLVDGRDMIIIRMPKDFPPFPQKLKFREPQREERICLVTTNFQTKSMSSMVSDTSCTFPSGDGIFWKHWIQTKDGQCGSPLVSTRDGFIVGIHSASNFANTNNYFTSVPKNFMELLTNQEAQQWVSGWRLNADSVLWGGHKVFMVKPEEPFQPVKEATQL [T174A] | 0.0658 |  | 0.102 |  | 0.0754 |  |  |  | 0.0656 | 0.0638 |
| MGESLFKGPRDYNPISSSICHLTNESDGHTTSLYGIGFGPFIITNKHLFRRNNGTLVVQSLHGVFKVKDTTTLQQHLVDGRDMIIIRMPKDFPPFPQKLKFREPQREERICLVTTNFQTKSMSSMVSDTSCTFPSGDGIFWKHWIQTKDGQCGSPLVSTRDGFIVGIHSASNFLNTNNYFTSVPKNFMELLTNQEAQQWVSGWRLNADSVLWGGHKVFMVKPEEPFQPVKEATQL [T174L] | 0.0388 |  |  |  | 0.0586 |  |  |  |  | 0.051 |

Same assay, conditions: temperature: 34 °C; time window: 0-4 h after rhamnose induction

| Variant | area with substrate MNLYFQS | area with substrate NNLYFQS | area with substrate QNLYFQS | area with substrate RNLYFQS | area with substrate WNLYFQS | area with substrate YNLYFQS | area with substrate GNLYFQS | area with substrate DNLYFQS |
| --- | --- | --- | --- | --- | --- | --- | --- | --- |
| MGESLFKGPRDYNPISSSICHLTNESDGHTTSLYGIGFGPFIITNKHLFRRNNGTLVVQSLHGVFKVKDTTTLQQHLVDGRDMIIIRMPKDFPPFPQKLKFREPQREERICLVTTNFQTKSMSSMVSDTSCTFPSGDGIFWKHWIQTKDGQCGSPLVSTRDGFIVCIHSASNFTNTNNYFTSVPKNFMELLTNQEAQQWVSGWRLNADSVLWGGHKVFMVKPEEPFQPVKEATQL [G166C] | 0.0573 | 0.0556 | 0.0398 | 0.0636 | 0.0478 | 0.039 |  |  |
| MGESLFKGPRDYNPISSSICHLTNESDGHTTSLYGIGFGPFIITNKHLFRRNNGTLVVQSLHGVFKVKDTTTLQQHLVDGRDMIIIRMPKDFPPFPQKLKFREPQREERICLVTTNFQTKSMSSMVSDTSCTFPSGDGIFWKHWIQTKDGQCGSPLVSTRDGFIVGIPSASNFTNTNNYFTSVPKNFMELLTNQEAQQWVSGWRLNADSVLWGGHKVFMVKPEEPFQPVKEATQL [H168P] | 0.0358 |  | 0.0586 |  |  | 0.0452 |  |  |
| MGESLFKGPRDYNPISSSICHLTNESDGHTTSLYGIGFGPFIITNKHLFRRNNGTLVVQSLHGVFKVKDTTTLQQHLVDGRDMIIIRMPKDFPPFPQKLKFREPQREERICLVTTNFQTKSMSSMVSDTSCTFPSGDGIFWKHWIQTKDGQCGSPLVSTRDGFICGIHSASNFTNTNNYFTSVPKNFMELLTNQEAQQWVSGWRLNADSVLWGGHKVFMVKPEEPFQPVKEATQL [V165C] | 0.0657 |  |  |  | 0.0875 | 0.0699 | 0.0301 |  |
| MGESLFKGPRDYNPISSSICHLTNESDGHTTSLYGIGFGPFIITNKHLFRRNNGTLVVQSLHGVFKVKDTTTLQQHLVDGRDMIIIRMPKDFPPFPQKLKFREPQREERICLVTTNFQTKSMSSMVSDTSCTFPSGDGIFWKHWIQTKDGQCGSPLVSTRDGFINGIHSASNFTNTNNYFTSVPKNFMELLTNQEAQQWVSGWRLNADSVLWGGHKVFMVKPEEPFQPVKEATQL [V165N] | 0.028 | 0.0296 |  |  | 0.0264 | 0.0143 |  |  |
| MGESLFKGPRDYNPISSSICHLTNESDGHTTSLYGIGFGPFIITNKHLFRRNNGTLVVQSLHGVFKVKDTTTLQQHLVDGRDMIIIRMPKDFPPFPQKLKFREPQREERICLVTTNFQTKSMSSMVSDTSCTFPSGDGIFWKHWIQTKDGQCGSPLVSTRDGFIVGEHSASNFTNTNNYFTSVPKNFMELLTNQEAQQWVSGWRLNADSVLWGGHKVFMVKPEEPFQPVKEATQL [I167E] |  |  |  | 0.0464 | 0.0463 |  |  |  |
| MGESLFKGPRDYNPISSSICHLTNESDGHTTSLYGIGFGPFIITNKHLFRRNNGTLVVQSLHGVFKVKDTTTLQQHLVDGRDMIIIRMPKDFPPFPQKLKFREPQREERICLVTTNFQTKSMSSMVSDTSCTFPSGDGIFWKHWIQTKDGQCGSPLVSTRDGFIVGGHSASNFTNTNNYFTSVPKNFMELLTNQEAQQWVSGWRLNADSVLWGGHKVFMVKPEEPFQPVKEATQL [I167G] |  | 0.0515 |  |  | 0.0372 | 0.0522 | 0.0509 |  |
| MGESLFKGPRDYNPISSSICHLTNESDGHTTSLYGIGFGPFIITNKHLFRRNNGTLVVQSLHGVFKVKDTTTLQQHLVDGRDMIIIRMPKDFPPFPQKLKFREPQREERICLVTTNFQTKSMSSMVSDTSCTFPSGDGIFWKHWIQTKDGQCGSPLVSTRDGFIVGIHSASNFYNTNNYFTSVPKNFMELLTNQEAQQWVSGWRLNADSVLWGGHKVFMVKPEEPFQPVKEATQL [T174Y] |  |  |  |  | 0.0544 | 0.05 | 0.0674 |  |
| MGESLFKGPRDYNPISSSICHLTNESDGHTTSLYGIGFGPFIITNKHLFRRNNGTLVVQSLHGVFKVKDTTTLQQHLVDGRDMIIIRMPKDFPPFPQKLKFREPQREERICLVTTNFQTKSMSSMVSDTSCTFPSGDGIFWKHWIQTKDGQCGSPLVSTRDGFIVGIHSASNFANTNNYFTSVPKNFMELLTNQEAQQWVSGWRLNADSVLWGGHKVFMVKPEEPFQPVKEATQL [T174A] |  | 0.0717 |  |  | 0.0652 |  | 0.0679 | 0.0775 |
| MGESLFKGPRDYNPISSSICHLTNESDGHTTSLYGIGFGPFIITNKHLFRRNNGTLVVQSLHGVFKVKDTTTLQQHLVDGRDMIIIRMPKDFPPFPQKLKFREPQREERICLVTTNFQTKSMSSMVSDTSCTFPSGDGIFWKHWIQTKDGQCGSPLVSTRDGFIVGIHSASNFLNTNNYFTSVPKNFMELLTNQEAQQWVSGWRLNADSVLWGGHKVFMVKPEEPFQPVKEATQL [T174L] |  | 0.0573 |  |  |  |  |  |  |
